In all, about 33,000 sequences were measured (“E-score (-0.5 to 0.5)”: median about -0.032, highest 2% from about 0.36 on). Some of the results follow.
What follows are sequences tested against T1, Sko1 (UniProt Q02100) (assay: PBM E-score (8-mer binding enrichment) (E-score (-0.5 to 0.5)); higher = stronger / more preferred TF binding; most listed sequences are background and not binding sites). Conditions: protein concentration: 200 nM; construct: GST-full length.
T1 sequence: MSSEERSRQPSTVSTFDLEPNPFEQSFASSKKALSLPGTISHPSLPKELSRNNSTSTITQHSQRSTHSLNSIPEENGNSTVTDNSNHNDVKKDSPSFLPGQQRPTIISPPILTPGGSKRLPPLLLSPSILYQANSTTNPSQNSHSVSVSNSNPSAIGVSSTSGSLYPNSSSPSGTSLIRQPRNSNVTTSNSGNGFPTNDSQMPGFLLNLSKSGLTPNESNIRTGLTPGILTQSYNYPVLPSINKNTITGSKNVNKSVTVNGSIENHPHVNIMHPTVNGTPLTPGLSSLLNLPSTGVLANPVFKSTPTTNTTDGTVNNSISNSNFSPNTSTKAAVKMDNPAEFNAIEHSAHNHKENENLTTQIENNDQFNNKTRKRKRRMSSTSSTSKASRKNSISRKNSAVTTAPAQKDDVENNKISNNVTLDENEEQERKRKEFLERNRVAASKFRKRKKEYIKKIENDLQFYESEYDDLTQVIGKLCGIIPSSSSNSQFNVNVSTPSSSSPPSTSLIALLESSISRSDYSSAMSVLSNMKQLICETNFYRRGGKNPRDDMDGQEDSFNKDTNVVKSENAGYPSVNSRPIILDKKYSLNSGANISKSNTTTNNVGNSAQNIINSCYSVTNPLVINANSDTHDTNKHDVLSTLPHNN
Procedure, shortened: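 E-scores (a modified Wilcoxon-Mann-Whitney statistic) were assigned by the Universal PBM Analysis Suite to every ungapped eight-base word pooled with its reverse complement. The input came from universal all-10-mer Agilent arrays made double-stranded by primer extension and probed with GST-tagged yeast transcription factors at about 100-200 nM. Fluorescent anti-GST detected bound protein, and masliner normalised the scans.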

Point of comparison: AGCATGAC, “PBM E-score” value 0.17. Against it:
- CTGAGTCC — lower, -0.0736
- GCAAGTAC — lower, 0.106
- AATCGATC — lower, 0.0563
- GAAAGGGC — lower, -0.157
- AAGACAAG — lower, 0.0626
- TTCTCCAA — lower, -0.036
- GCAAGGCC — lower, -0.282
- CGCTAACG — higher, 0.268
- ATATCCAA — lower, 0.165
- CCTAAACA — lower, -0.0392
- AATTGTTC — higher, 0.227
- TAGTCTAA — lower, 0.0345
- CCGAGCGC — lower, -0.192
- GAGGTAGC — lower, -0.222
- CGGTCACA — lower, -0.0474
- AATAGTGT — lower, 0.115
- ACAAAACG — higher, 0.347
- ACCGGTCC — lower, -0.398
- GACTAACA — lower, 0.0573
- CCTCTGTA — lower, -0.16
- AGCAGACC — lower, -0.16
- AAGTCGTG — lower, 0.00032
- GCCAACAA — lower, -0.143
- GGAGGGGA — lower, -0.104
- CCAGCAAG — lower, -0.194
- TGCGGTAA — lower, 0.0179
- CCTATGCC — lower, -0.3
- CACGGCCA — lower, -0.354
- CCGACGAG — lower, -0.201
- CGGGGCAG — lower, -0.114
- CTGGAGGA — lower, -0.246
- CTTGAATC — lower, -0.0656
- TCATAGCA — higher, 0.231
- CACCCAAG — lower, -0.3
- GAGAACTA — lower, 0.0285
- CAAGATCC — lower, 0.0137
- TACCCCCA — lower, -0.192
- AGCCTTAC — lower, -0.204
- CGTGCTGA — lower, 0.11
- GCCGGGAA — lower, -0.3
- AAACGACG — higher, 0.299
- AACCTAGG — lower, -0.0381
- GATCCTGA — lower, 0.113
- CCGAGGGC — lower, -0.25
- CAGCATCC — lower, -0.124
- ACTCCTGC — lower, -0.0979
- AAGCAGAG — lower, 0.0145
- ACGCGACA — higher, 0.249
- GCACTTTA — lower, 0.0809
- ATCTCGGG — lower, -0.0957
- GCAGACCA — lower, -0.111
- CATCTTAG — lower, 0.108
- ATCGATAG — lower, 0.0346
- GTTTACCA — lower, 0.094
- AGCGTCCC — lower, -0.14
- ATGCCAAT — lower, -0.0575
- GAATAAAC — lower, 0.0692
- GTAGGGGA — lower, -0.186
- ATCACCTC — higher, 0.175
- ACGCGACT — lower, 0.155
- GCGTGGTA — lower, -0.0393
- ACGAGGAA — lower, 0.00288
- CCGTCGCA — lower, -0.244
- CAATACGG — lower, -0.0873
- AGCAAGTG — lower, -0.0729
- CATTCGGG — lower, -0.125
- ATTGGAGG — lower, -0.123
- ACTAGCTC — lower, 0.0539
- CCGTCTCA — lower, -0.0524
- GCGCGTCA — higher, 0.424
- AATTTATA — higher, 0.275
- CATGAAGG — lower, -0.108
- GCATCCAA — lower, -0.193
- ATGCGACC — lower, -0.011
- CGACTACC — lower, -0.221
- CTTGTTAC — lower, 0.094
- ATGGTTAA — lower, 0.0259
- AAGGCCTT — lower, -0.158
- AGGGTACG — lower, 0.148
- ATCCTAGA — lower, -0.0719
- ACAGTAGA — lower, 0.164
- CAGTAGGG — lower, -0.265
- ACGTCCCC — lower, 0.126
- AGTGTGAC — higher, 0.254
- GGCGCGGA — lower, -0.283
- ATAGTCGG — lower, -0.252
- CCGAAGCC — lower, -0.319
- CAGTGCGA — lower, -0.0618
- CCGGACTC — lower, -0.16
- AGCTGATG — lower, 0.0985
- AATCCCCT — lower, -0.258
- AATTAGTC — lower, 0.14
- GCCCAACA — lower, -0.296
- CAGTACAG — lower, -0.165
- CAGGCTTC — lower, -0.242
- ACTGGTCA — lower, -0.0838
- GATTATAA — lower, 0.141
- AAAGGATA — lower, 0.124
- AGCGGTAC — lower, 0.045
- ATTGAGAG — lower, -0.0822
- AAGGGCAT — lower, -0.0336
- GTCTCAAC — lower, -0.0146
- AGTCCGAT — lower, -0.153
- AATCACAA — lower, 0.0722
- CGGCTCAC — lower, -0.176
- AATGGAAA — lower, 0.0019
- CCGGGGAA — lower, -0.271
- CGCGAGCC — lower, -0.0768

Source: the supplement of paper PMC3334620
